The source of these data is patent US7592316B2, “Peptides as NS3-serine protease inhibitors of hepatitis C virus” (Schering Corporation, priority 2000, dated 2009).

Each structure is given as a SMILES string.

The target in the test is HCV NS3/NS4A protease (strain 1a) (Hepatitis C virus genotype 1a, UniProt P27958). Briefly: biochemical. As to conditions: Table 5; HCV NS3/NS4A protease, spectrophotometric assay, 30° C., pH 6.5; read-out: Ki* Range.
By Ki is commonly meant the equilibrium dissociation constant of an inhibitor or competing ligand from its target. As to `C=CCCC(NC(=O)[C@@H]1[C@H]2[C@@H](CN1C(=O)[C@@H](NC(=O)OC(C)(C)C)C(C)(C)C)C2(C)C)C(=O)C(N)=O` (stereo partly drawn), the Ki lay within 101 to 1000 nM.
In the case of `CCCC(NC(=O)C1C2C(CN1C(=O)[C@H](NC(=O)OC(C)(C)C)C1CCCC(C(=O)OC(C)(C)C)C1)C2(C)C)C(=O)C(N)=O` (stereo partly drawn), the inhibition constant (Ki) lay in the range of 101 to 1000 nM.
For the compound `CC(C)(C)CC(=O)N1C[C@H]2[C@@H]([C@H]1C(=O)NC(CC1CC1)C(=O)C(N)=O)C2(C)C` (stereo partly drawn), the Ki was greater than 1000 nM.
As to `CC1(C)[C@@H]2[C@@H](C(=O)NC(CC3CC3)C(=O)C(N)=O)N(C(=O)CC3CCCCC3)C[C@@H]21` (stereo partly drawn), the Ki is greater than 1000 nM.
As to `CC(C)CC(NC(=O)[C@@H]1[C@@H]2[C@H](CN1C(=O)[C@@H](NC(=O)OC(C)(C)C)C(C)(C)C)C2(C)C)C(=O)C(N)=O` (stereo partly drawn), the Ki is 101 to 1000 nM.
For the compound `C=CCC(NC(=O)[C@@H]1[C@@H]2[C@H](CN1C(=O)[C@@H](NC(=O)OC(C)(C)C)C(C)(C)C)C2(C)C)C(=O)C(N)=O` (stereo partly drawn), the Ki is greater than 1000 nM.
Next, `CCCC(NC(=O)[C@@H]1[C@@H]2[C@H](CN1C(=O)[C@@H](NC(=O)OC(C)(C)C)C1CCCC1)C2(C)C)C(=O)C(N)=O` (stereo partly drawn): 101 to 1000 nM.
With `CC(C)(C)OC(=O)N[C@H](C(=O)N1C[C@H]2[C@@H](C1C(=O)NC(CC1CC1)C(=O)C(N)=O)C2(C)C)C1Cc2ccccc2C1` (stereo partly drawn), the Ki lay in the range of 1 to 100 nM.
On to `CC(C)(C)OC(=O)N[C@H](C(=O)N1C[C@H]2[C@@H]([C@H]1C(=O)NC(CC1CC1)C(=O)C(N)=O)C2(C)C)C1CCCC1` (stereo partly drawn), for which the Ki lay in the range of 1 to 100 nM.
In the case of `C=CCC(NC(=O)[C@@H]1[C@@H]2[C@H](CN1C(=O)[C@@H](NC(=O)OC(C)(C)C)C1CCCCC1)C2(C)C)C(=O)C(N)=O` (stereo partly drawn) it was 101 to 1000 nM; in that of `CC(C)CC(NC(=O)[C@@H]1[C@@H]2[C@H](CN1C(=O)[C@@H](NC(=O)OC(C)(C)C)C1CCCCC1)C2(C)C)C(=O)C(N)=O` (stereo partly drawn), 101 to 1000 nM; in that of `CCCC(NC(=O)C1C2CCC(C2)N1C(=O)C(NC(=O)OC(C)(C)C)C1CCCCC1)C(=O)C(=O)NCC(=O)N[C@H](C(=O)N(C)C)c1ccccc1` (stereo partly drawn), 1 to 100 nM.
Next, `CCCCC(NC(=O)C1C2CCC(C2)N1C(=O)C(NC(=O)OC(C)(C)C)C(C)(C)C)C(=O)C(=O)NCC(=O)NC(C(=O)N(C)C)c1ccccc1` (stereo not drawn): 1 to 100 nM; `CCCCC(NC(=O)C1C2CCC(C2)N1C(=O)C(NC(=O)OC(C)(C)C)C1CCCCC1)C(=O)C(=O)NCC(=O)NC(C(=O)N(C)C)c1ccccc1` (stereo not drawn): 1 to 100 nM; `CCCC(NC(=O)C1(C)CC(C)(C)CN1C(=O)[C@H](NC(=O)OC(C)(C)C)C1CCCCC1)C(=O)C(=O)NCC(=O)N[C@H](C(=O)N(C)C)c1ccccc1` (stereo partly drawn): greater than 1000 nM.
Next, `CCCC(NC(=O)C1(C)CC(C)(C)CN1C(=O)[C@H](NC(=O)OC(C)(C)C)C(C)(C)C)C(=O)C(=O)NCC(=O)N[C@H](C(=O)N(C)C)c1ccccc1` (stereo partly drawn): greater than 1000 nM; `CN(C)C(=O)[C@@H](NC(=O)CNC(=O)C(=O)C(CCc1ccccc1)NC(=O)C1[C@H]2[C@@H](CN1C(=O)C(NC(=O)OC(C)(C)C)C1CCC(F)(F)CC1)C2(C)C)c1ccccc1` (stereo partly drawn): 101 to 1000 nM; `CCCCC(NC(=O)[C@@H]1C2CC(C3CC32)N1C(=O)C(NC(=O)OC(C)(C)C)C1CCCCC1)C(=O)C(=O)NCC(=O)N[C@@H](C(=O)N(C)C)c1ccccc1` (stereo partly drawn): 1 to 100 nM.
As to `CCCC(NC(=O)[C@@H]1C2CC(C3CC32)N1C(=O)C(NC(=O)OC(C)(C)C)C(C)(C)C)C(=O)C(=O)NCC(=O)N[C@@H](C(=O)N(C)C)c1ccccc1` (stereo partly drawn), the Ki was greater than 1000 nM.
In the case of `CCCC(NC(=O)C1C2CC(C3CC32)N1C(=O)C(NC(=O)OC(C)(C)C)C(C)(C)C)C(=O)C(=O)NCC(=O)N[C@@H](C(=O)N(C)C)c1ccccc1` (stereo partly drawn) it was greater than 1000 nM; in that of `CCCC(NC(=O)[C@@H]1C2CC(C3CC32)N1C(=O)C(NC(=O)OC(C)(C)C)C1CCCCC1)C(=O)C(=O)NCC(=O)NC(C(=O)N(C)C)c1ccccc1` (stereo partly drawn), 1 to 100 nM.
Next, `CCCC(NC(=O)C1[C@H]2[C@@H](CN1C(=O)C(NC(=O)OC(C)(C)C)C1CCC(F)(F)CC1)C2(C)C)C(=O)C(=O)NCC(=O)N[C@H](C(=O)N(C)C)c1ccccc1` (stereo partly drawn): 1 to 100 nM.
Consider `CCCC(NC(=O)C1C2C(CN1C(=O)C(NC(=O)OCC(C)C)C1CCC(F)(F)CC1)C2(C)C)C(=O)C(=O)NCC(=O)N[C@H](C(=O)N(C)C)C1CCCCC1` (stereo partly drawn), for which the Ki was 1 to 100 nM.
For `CC(C)CC(NC(=O)C1C2CCC(C2)N1C(=O)C(NC(=O)OC(C)(C)C)C1CCCCC1)C(=O)C(=O)NCC(=O)NC(C(=O)N(C)C)c1ccccc1` (stereo not drawn), the Ki was 1 to 100 nM.
In the case of `CC(C)CC(NC(=O)C1C2CCC(C2)N1C(=O)C(NC(=O)OC(C)(C)C)C(C)(C)C)C(=O)C(=O)NCC(=O)NC(C(=O)N(C)C)c1ccccc1` (stereo not drawn) it was 1 to 100 nM.
Next, `CCCC(NC(=O)C1[C@@H]2[C@@H](CN1C(=O)[C@H](C1CCCCC1)N(CCC(C)C)C(=O)OC(C)(C)C)C2(C)C)C(=O)C(=O)NCC(=O)N[C@H](C(=O)N(C)C)c1ccccc1` (stereo partly drawn): greater than 1000 nM.
Turning to `CCCC(NC(=O)C1[C@H]2[C@@H](CN1C(=O)[C@@H](NCCC(C)C)C1CCCCC1)C2(C)C)C(=O)C(=O)NCC(=O)N[C@H](C(=O)N(C)C)c1ccccc1` (stereo partly drawn), the Ki lay in the range of 1 to 100 nM.
In the case of `CN(C)C(=O)[C@@H](NC(=O)CNC(=O)C(=O)C(CC1CC1)NC(=O)[C@@H]1[C@H]2CCC(C)(C)O[C@H]2CN1C(=O)[C@@H](NC(=O)OC(C)(C)C)C(C)(C)C)c1ccccc1` (stereo partly drawn), the Ki was 101 to 1000 nM.
As to `CC(C)CC(NC(=O)C1[C@H]2[C@@H](CN1C(=O)[C@@H](NC(=O)OC(C)C)C(C)(C)C)C2(C)C)C(=O)C(=O)NCC(=O)N[C@H](C(=O)N(C)C)c1ccccc1` (stereo partly drawn), the Ki was 1 to 100 nM.
Turning to `CCCC(NC(=O)[C@@H]1[C@H]2[C@@H](CN1C(=O)C(NCCC(C)c1ccccc1)C(C)(C)C)C2(C)C)C(=O)C(=O)NCC(=O)N[C@H](C(=O)N(C)C)c1ccccc1` (stereo partly drawn), the Ki fell in the range of 1 to 100 nM.
Next, `CCCC(NC(=O)[C@@H]1[C@H]2[C@@H](CN1C(=O)C(NCCc1ccccc1)C(C)(C)C)C2(C)C)C(=O)C(=O)NCC(=O)N[C@H](C(=O)N(C)C)c1ccccc1` (stereo partly drawn): 1 to 100 nM.
Take `CCCC(NC(=O)[C@@H]1[C@H]2[C@@H](CN1C(=O)C(NCCC(C)(C)C)C(C)(C)C)C2(C)C)C(=O)C(=O)NCC(=O)N[C@H](C(=O)N(C)C)c1ccccc1` (stereo partly drawn): the Ki was 1 to 100 nM.
On to `CCCC(NC(=O)[C@@H]1[C@H]2[C@@H](CN1C(=O)[C@@H](NC(=O)OC(C)C)C(C)(C)C)C2(C)C)C(=O)C(=O)NCC(=O)N[C@H](C(=O)N(C)C)c1ccccc1` (stereo partly drawn), for which the Ki was in the range of 1 to 100 nM.
For `CCCC(NC(=O)[C@@H]1C2C(CN1C(=O)[C@@H](NC(=O)OC(C)(C)C)C1CCCCC1)C2(Br)Br)C(=O)C(=O)NCC(=O)N[C@H](C(=O)N(C)C)c1ccccc1` (stereo partly drawn), the Ki lay in the range of 1 to 100 nM.
For the compound `CN(C)C(=O)[C@@H](NC(=O)CNC(=O)C(=O)C(CC1CC1)NC(=O)[C@@H]1C2CC(C)(C)CC2CN1C(=O)[C@@H](NC(=O)OC(C)(C)C)C1CCCCC1)c1ccccc1` (stereo partly drawn), the Ki lay within 1 to 100 nM.
In the case of `CCCC(NC(=O)[C@@H]1CC(NS(=O)(=O)c2ccc(OC)cc2)CN1C(=O)[C@@H](NC(=O)OC(C)(C)C)C1CCCCC1)C(=O)C(=O)NCC(=O)N[C@H](C(=O)N(C)C)c1ccccc1` (stereo partly drawn), the Ki was in the range of 1 to 100 nM.
Next, `C=CCCC(NC(=O)[C@@H]1[C@H]2OC(C)(C)O[C@H]2CN1C(=O)[C@@H](NC(=O)OC(C)(C)C)C(C)(C)C)C(=O)C(=O)NCC(=O)N[C@H](C(=O)N(C)C)c1ccccc1` (stereo partly drawn): 101 to 1000 nM.
Next, `CN(C)C(=O)C(NC(=O)CNC(=O)C(=O)C(CC1CC1)NC(=O)[C@@H]1[C@H]2[C@@H](CN1C(=O)[C@@H](NC(=O)OC(C)(C)C)C(C)(C)C)C2(Cl)Cl)c1ccccc1` (stereo partly drawn): 1 to 100 nM; `CN(C)C(=O)[C@@H](NC(=O)CNC(=O)C(=O)C(CC1CC1)NC(=O)[C@@H]1C2C(CN1C(=O)C(NC(=O)OC(C)(C)C)C1Cc3ccccc3C1)C2(Cl)Cl)c1ccccc1` (stereo partly drawn): 1 to 100 nM.
For `CCCCC(NC(=O)[C@@H]1C2C(CN1C(=O)[C@@H](NC(=O)OC(C)(C)C)C(C)(C)C)C2(Cl)Cl)C(=O)C(=O)NCC(=O)N[C@H](C(=O)N(C)C)c1ccccc1` (stereo partly drawn), the Ki lay in the range of 1 to 100 nM.
In the case of `C=CCCC(NC(=O)[C@@H]1C2C(CN1C(=O)[C@@H](NC(=O)OC(C)(C)C)C1Cc3ccccc3C1)C2(Cl)Cl)C(=O)C(=O)NCC(=O)N[C@H](C(=O)N(C)C)c1ccccc1` (stereo partly drawn) it was 1 to 100 nM.
Next, `CN(C)C(=O)[C@@H](NC(=O)CNC(=O)C(=O)C(CC1CCC1)NC(=O)[C@@H]1C2C(CN1C(=O)[C@@H](NC(=O)OC(C)(C)C)C1CCCCC1)C2(C)C)c1ccccc1` (stereo partly drawn): 1 to 100 nM; `CN(C)C(=O)C(NC(=O)CNC(=O)C(=O)C(CC1CC1)NC(=O)[C@@H]1C2C(CN1C(=O)C(NC(=O)OC(C)(C)C)C1CCCCC1)C2(Cl)Cl)c1ccccc1` (stereo partly drawn): 1 to 100 nM.
Regarding `C=CCCC(NC(=O)[C@@H]1C2C(CN1C(=O)[C@@H](NC(=O)OCC(C)C)C1Cc3ccccc3C1)C2(C)C)C(=O)C(=O)NCC(=O)N[C@H](C(=O)N(C)C)c1ccccc1` (stereo partly drawn), the Ki fell in the range of 1 to 100 nM.
Next, `C=CCCC(NC(=O)[C@@H]1C2C(CN1C(=O)C(NC(=O)OC(C)(C)C)C1CCCCC1)C2(C)C)C(=O)C(=O)NCC(=O)N[C@H](C(=O)N(C)C)c1ccccc1` (stereo partly drawn): 1 to 100 nM.
As to `CN(C)C(=O)[C@@H](NC(=O)CNC(=O)C(=O)[C@@H](CC1CCC1)NC(=O)[C@@H]1[C@H]2OC(C)(C)O[C@H]2CN1C(=O)[C@@H](NC(=O)OC(C)(C)C)C(C)(C)C)c1ccccc1`, the inhibition constant Ki fell in the range of 1 to 100 nM.
Next, `CN(C)C(=O)[C@@H](NC(=O)CNC(=O)C(=O)[C@H](CC1CCC1)NC(=O)[C@@H]1[C@H]2OC(C)(C)O[C@H]2CN1C(=O)[C@@H](NC(=O)OC(C)(C)C)C(C)(C)C)c1ccccc1`: 1 to 100 nM.
Next, `C=CCCC(NC(=O)[C@@H]1[C@H]2[C@@H](CN1C(=O)[C@@H](NC(=O)OC(C)(C)C)C(C)(C)C)C2(C)C)C(=O)C(=O)OCC` (stereo partly drawn): greater than 1000 nM; `C=CCCC(NC(=O)[C@@H]1[C@H]2[C@@H](CN1C(=O)[C@@H](NC(=O)OC(C)(C)C)C(C)(C)C)C2(C)C)C(=O)C(=O)O` (stereo partly drawn): 101 to 1000 nM.
For the compound `CCCC(NC(=O)[C@@H]1[C@@H]2[C@H](CN1C(=O)[C@@H](NC(=O)[C@H](CC(C)C)NS(C)(=O)=O)C(C)(C)C)C2(C)C)C(=O)C(=O)OC` (stereo partly drawn), the Ki is greater than 1000 nM.
`CCCC(NC(=O)[C@@H]1[C@@H]2[C@H](CN1C(=O)[C@@H](NC(=O)[C@H](CC(C)C)NS(C)(=O)=O)C(C)(C)C)C2(C)C)C(=O)C(=O)O` (stereo partly drawn): the Ki was 101 to 1000 nM.
